Here are results for 1 molecule from patent publication US20100047327A1, “Adjuvant for Transdermal or Transmucosal Administration and Pharmaceutical Preparation Containing the Same” (priority 2007, published 2010).

This test has as its system influenza H3N2. Put plainly: Antibody titer after intracutaneous administration of influenza H3N2 antigen plus LA. Particulars: influenza H3N2 0.07 μg/head, antigen solution:LA:Tween 80 1:1:0.01; FIG. 6.

In the case of `CCCCCCCCCCCCO` [Lauryl alcohol, lauryl alcohol], the “antibody titer, intracutaneous (antigen+LA)” value is reported as “adjuvant effect”.
